In ChEMBL document CHEMBL4888484, “Replenishing the malaria drug discovery pipeline: Screening and hit evaluation of the MMV Hit Generation Library 1 (HGL1) against asexual blood stage Plasmodium falciparum ,using a nano luciferase reporter read-out” (2022):
Out of some 150,000 compounds screened, about 540 (0.36%) showed an effect of 50% or more. Some of the results follow.

Each compound was assayed on Plasmodium falciparum (assay: Primary screen in NF54 nanoGlo assay, in single point, at 2uM, 72h; a lower Z score goes with more inhibition). Conditions: timepoint 72 hour.
Type: functional, Erythrocyte
In the case of CN1CCC[C@@H](C(=O)c2ccncc2)C1=O, the “% Inhibition” value is reported as 11% and the Z score is reported as -1.22. c1ccc(-c2cn3c4c(sc3n2)CCCCC4)cc1 was tested, and the “% Inhibition” value was -13% and the Z score was 1.52. In the case of O=C(O)CC1CCN(Cc2cc3ccccc3o2)CC1, the “% Inhibition” value is reported as 5% and the Z score is reported as -0.68. For C[C@@H](CN1CCC2(CCC(=O)N(CCc3ccncc3)C2)CC1)c1ccccc1, the “% Inhibition” value was 5% and the Z score was -0.84. For Cc1ccc(-c2ncn(C3CCCCC3)c2-c2ccc(C(=O)NCCN3CCOCC3)o2)cc1, the “% Inhibition” value was -1% and the Z score was 0.14. For COC(=O)C(C)(C)NCc1ccccc1, the “% Inhibition” value was 29% and the Z score was -3.25. With Cc1noc(C)c1CN(C)C(=O)COc1ccc2ccccc2c1 the “% Inhibition” value was 25% and the Z score was -3.65. C#CCNC(=O)CC(=O)Nc1ccc(Cl)c(OC(F)F)c1 was tested, and the “% Inhibition” value was -3% and the Z score was 0.36. CN1CCN(c2c(F)cc3c(=O)c(C(=O)O)cn(-c4ccc(OC5CC6CCC5(C)C6(C)C)c(F)c4)c3c2F)CC1 (stereo unspecified) was tested, and the “% Inhibition” value was 37% and the Z score was -4.72. With CCOc1ccccc1OC/C=C/CN1CCC[C@H](C)C1 the “% Inhibition” value was -4% and the Z score was 0.48. For Cc1nc(C(=O)N[C@H](C(N)=O)c2ccccc2)cs1, the “% Inhibition” value was 0% and the Z score was 0.08. For CCN1CCC2CCC(C1)N2C(=O)C(=O)Nc1ccc(C#N)cc1 (stereo unspecified), the “% Inhibition” value was -6% and the Z score was 0.62. COC[C@H]1CN(C2CCC2)CC12CCN(C(=O)c1ccc3ncccc3c1)CC2 was tested, and the “% Inhibition” value was 2% and the Z score was -0.2. CN1CCN(c2cccc(NC(=O)NCCc3c[nH]cn3)c2)C1=O was tested, and the “% Inhibition” value was -1% and the Z score was 0.18. For Cc1ccc(F)cc1C(=O)O[C@H]1CCCN(c2ccnc(N)n2)C1, the “% Inhibition” value was -4% and the Z score was 0.62. In the case of CNC(=O)[C@@H](C)CN(C)c1nccn2ccnc12, the “% Inhibition” value is reported as -25% and the Z score is reported as 3.33. With CC(C)(C)c1ncc(-c2cc(F)cc3cccnc23)[nH]1 the “% Inhibition” value was -16% and the Z score was 1.82. In the case of Cc1c(-c2ccc(CN(C)C)cc2)c(=O)n(C)c(=O)n1C, the “% Inhibition” value is reported as -7% and the Z score is reported as 0.84. Cc1[nH]ccc1C(=O)N(C)Cc1nc(CC(C)C)no1 was tested, and the “% Inhibition” value was 6% and the Z score was -0.85. COc1ccccc1N1CCN(CCCNC(=O)c2nn(-c3ccc(C)cc3)c(=O)n(C)c2=O)CC1 was tested, and the “% Inhibition” value was -10% and the Z score was 0.87. Nc1nnnn1CC(=O)N[C@H]1CCOC[C@@H]1Oc1ccccn1 was tested, and the “% Inhibition” value was -17% and the Z score was 3.4. With CC[C@@H]1Oc2ccc(NC(=O)c3ccccc3F)cc2CN(Cc2ccc3c(c2)OCO3)C1=O the “% Inhibition” value was -12% and the Z score was 1.33. For COc1ccc(NC(=O)Cc2c(C)nn(-c3nc(C)cs3)c2O)cc1, the “% Inhibition” value was -16% and the Z score was 1.98. In the case of Cc1cc(=O)n(CC(=O)NCc2ccccc2Cl)c(Nc2ccc(F)cc2)n1, the “% Inhibition” value is reported as -20% and the Z score is reported as 2.1. With CC12CCN(C(=O)C3=CCC3)CC1C2(F)F (stereo unspecified) the “% Inhibition” value was -6% and the Z score was 0.8. COc1ccc(-c2c[nH]nc2-c2ccc(OCc3ccc(C)cc3)cc2O)cc1 was tested, and the “% Inhibition” value was -8% and the Z score was 1.18. With Cc1ccc(N(Cc2ccco2)C(=O)c2ccc(C)c(S(C)(=O)=O)c2)cc1 the “% Inhibition” value was -15% and the Z score was 2.81. In the case of CN(C)c1cccc(-c2nc(-c3cn(Cc4cccc(F)c4)nn3)no2)c1, the “% Inhibition” value is reported as -15% and the Z score is reported as 2.85. With Cc1cc(-c2nc(C(C)C)nn2-c2ccccn2)cc(S(N)(=O)=O)c1C the “% Inhibition” value was -17% and the Z score was 1.85. In the case of c1nc(NCc2cn([C@H]3CCOC3)nn2)c2sccc2n1, the “% Inhibition” value is reported as -9% and the Z score is reported as 1.62. With c1cc(-c2nc(-c3cccs3)no2)cc(-n2cnnn2)c1 the “% Inhibition” value was -1% and the Z score was 0.13. For CC(C)c1cc(-n2c(Cl)cncc2=O)ncn1, the “% Inhibition” value was -15% and the Z score was 1.42. With COc1ccc(C(=O)NC(Cc2ccc(F)cc2)Cc2ccc(F)cc2)cc1 the “% Inhibition” value was -4% and the Z score was 0.75. With CCNC(=O)C1CC(c2cccc(OC)c2)NS(=O)(=O)N1C (stereo unspecified) the “% Inhibition” value was -23% and the Z score was 2.04. For CCc1nc(N(CCC(=O)N2CCN(CC)CC2)Cc2ccccc2)c2ccc(Cl)cc2n1, the “% Inhibition” value was -1% and the Z score was 0.13. With COc1ccccc1CNC(=O)N1CCC[C@H]1c1ccc(O)cc1 the “% Inhibition” value was -11% and the Z score was 1.46. For O=C(O)[C@@H]1CCN(Cc2ccccc2)C[C@@H]1c1ccccc1, the “% Inhibition” value was -28% and the Z score was 3.34. For COc1ccc(CNC(=O)c2nnn(Cc3nc(-c4ccc(C)cc4)oc3C)c2N)cc1OC, the “% Inhibition” value was -12% and the Z score was 1.81. For CCOc1cccc(CN2C(=O)C(C)C(C)C2=O)n1 (stereo unspecified), the “% Inhibition” value was -12% and the Z score was 1.66. Cc1nn(C)c2ncc(-c3cc(C(F)(F)F)nn3C)cc12 was tested, and the “% Inhibition” value was -5% and the Z score was 0.94. COc1ccc(CN2CCN(c3cc(Oc4ccc(Cl)cc4)ncn3)C[C@@H]2C)c(OC)c1 was tested, and the “% Inhibition” value was -5% and the Z score was 0.6. In the case of CCS(=O)(=O)N1C[C@@H]2CN(C(=O)c3sc(C)nc3C)C[C@]2(c2nc(C)no2)C1, the “% Inhibition” value is reported as -6% and the Z score is reported as 0.76. O=C(CCN(CCCN1CCOCC1)c1nc(-c2ccccc2Cl)nc2ccccc12)NCCN1CCOCC1 was tested, and the “% Inhibition” value was -7% and the Z score was 0.79. COC(=O)C[C@H](N)c1cccc(C)c1C was tested, and the “% Inhibition” value was -8% and the Z score was 1.54. In the case of CC(C)c1ccc(NC(=O)c2cn(Cc3ccc(NC(=O)c4cccc(F)c4)cc3)cn2)cc1, the “% Inhibition” value is reported as 0% and the Z score is reported as 0.05. For COCCC(C)(C)C(=O)N1CCC(OC[C@H]2CCCO2)CC1, the “% Inhibition” value was 1% and the Z score was -0.15. CC(C)c1nnc(N[C@H]2C[C@@H](c3cc(=O)[nH]c(N4CCCC4)n3)C2)s1 was tested, and the “% Inhibition” value was 13% and the Z score was -1.24. In the case of C[C@@H](C1CC1)N(C)C(=O)NCCS(=O)(=O)C(C)(C)C, the “% Inhibition” value is reported as -42% and the Z score is reported as 4.94. In the case of CCn1nccc1C(=O)N1CCN(Cc2cc(C)cc(C)c2)C(=O)C1, the “% Inhibition” value is reported as -2% and the Z score is reported as 0.21. In the case of COc1ccc(CN2C[C@@H](COc3cccc(F)c3)C[C@@H](C(=O)NCCN(C)C)C2)cc1OC, the “% Inhibition” value is reported as -8% and the Z score is reported as 0.88. For Cc1cc(S(=O)(=O)[C@H]2CS(=O)(=O)C[C@@H]2NCc2ccncc2)ccc1F, the “% Inhibition” value was -1% and the Z score was 0.14. With Fc1ccc(C2(CNCc3ncc[nH]3)CC2)c(Cl)c1 the “% Inhibition” value was 2% and the Z score was -0.26. In the case of O=C(c1c(O)cccc1OC(F)(F)F)N1CCO[C@H]2CCC[C@H]21, the “% Inhibition” value is reported as 0% and the Z score is reported as -0.04. CCC1CN(CC2CCCN(S(C)(=O)=O)C2)CCO1 (stereo unspecified) was tested, and the “% Inhibition” value was -8% and the Z score was 0.97. CC(=O)Nc1nonc1NC(=O)c1ccc(C)c(NC(=O)[C@@H]2CCCO2)c1 was tested, and the “% Inhibition” value was -5% and the Z score was 0.64. In the case of CCCCN(CCNc1ncnc2onc(C)c12)Cc1ccco1, the “% Inhibition” value is reported as 0% and the Z score is reported as 0.01. With O=C(NCCN1C(=O)CCCC1=O)c1cc(F)c(F)c(F)c1 the “% Inhibition” value was -4% and the Z score was 0.82. In the case of CCCN(C)c1nccn2c(=O)n(CC(=O)Nc3ccc(OC)c(Cl)c3)nc12, the “% Inhibition” value is reported as -6% and the Z score is reported as 0.81. For CC1=NN(c2cnn(C)c2)C(=O)[C@@H](C)C1, the “% Inhibition” value was -1% and the Z score was 0.28. For Cc1ccc(C)c(S(=O)(=O)NC[C@](C)(O)C(=O)OC(C)(C)C)c1, the “% Inhibition” value was -4% and the Z score was 0.67. In the case of CO[C@H]1C[C@@H](O)C12CCN(Cc1[nH]cc(C)c(=O)c1C)CC2, the “% Inhibition” value is reported as -4% and the Z score is reported as 0.81. With Cc1ccc(S(=O)(=O)N(c2ccccc2)C2CCN(Cc3ccccc3F)CC2)cc1 the “% Inhibition” value was -4% and the Z score was 0.34. With CCN1CCN(c2c(CN(C(=O)NC(C)(C)C)C3CC3)c(C)nn2-c2cccc(F)c2)CC1 the “% Inhibition” value was 5% and the Z score was -0.65. With CC(C)[C@H]1C(=O)NCCN1Cc1ccc(N(C)C)nc1 the “% Inhibition” value was -8% and the Z score was 1.63. In the case of CC(=O)N1CCCC1C1CCCN1C(C)c1ccc(F)cc1F (stereo unspecified), the “% Inhibition” value is reported as -13% and the Z score is reported as 2.1. With CCOc1ccc2c(c1)c(=O)c1cccnc1n2CC(=O)Nc1ccccc1Cl the “% Inhibition” value was -22% and the Z score was 3.79. With Cc1cc(CN2C(=O)N[C@@]3(CCCCc4ccccc43)C2=O)no1 the “% Inhibition” value was 33% and the Z score was -0.54. For C#CCOC[C@@H](O)CN(Cc1c(-c2ccccc2)nn(C)c1Oc1ccc(C)cc1)C1CC1, the “% Inhibition” value was 10% and the Z score was -1. In the case of N[C@@H](CCOc1ccccc1)c1ccc(F)cc1, the “% Inhibition” value is reported as -9% and the Z score is reported as 1.1. For CCC1(CNC(=O)N[C@@H](C)c2nc[nH]n2)CCN(Cc2ccccc2)CC1, the “% Inhibition” value was -6% and the Z score was 1.07. CN(Cc1ccccc1N1CCOCC1)c1ccccc1C#N was tested, and the “% Inhibition” value was -8% and the Z score was 1.33. In the case of O=C(Cc1cccc(F)c1)N1CCOCC12CCCCC2, the “% Inhibition” value is reported as 2% and the Z score is reported as -0.37. In the case of O=C(CCc1ccc(O)cc1)N1C[C@H]2CC[C@@H](C1)N(Cc1ccccc1)C2=O, the “% Inhibition” value is reported as 1% and the Z score is reported as -0.17. For CCOC(=O)N1CCN(C(=O)Cn2cccc(OC)c2=O)CC1, the “% Inhibition” value was -14% and the Z score was 2.19. In the case of N#Cc1ccc(OCCNC(=O)N[C@H]2CCCC23CCOCC3)cc1, the “% Inhibition” value is reported as -17% and the Z score is reported as 1.73. With COc1ccc(CCNC(N)=NCC2CC2)cc1 the “% Inhibition” value was -14% and the Z score was 1.61. CN(C)c1ccc(C2C(S(=O)(=O)N(C)C3CCCCC3)CON2C)cc1 (stereo unspecified) was tested, and the “% Inhibition” value was -5% and the Z score was 0.45. For CN(C)Cc1csc(CN2CCc3[nH]nc(CO)c3C2)c1, the “% Inhibition” value was -10% and the Z score was 1.96. For O=S(=O)(c1ccc(Oc2ccc(Br)cc2Br)nc1)N1CCCCC1, the “% Inhibition” value was -8% and the Z score was 1.09. CC(C)C(=O)NCC(=O)N1CCC[C@@]2(CCC(=O)N(Cc3ccccn3)C2)C1 was tested, and the “% Inhibition” value was 2% and the Z score was -0.3. CCCCC(C)C(=O)N1CC(O)CC1CO (stereo unspecified) was tested, and the “% Inhibition” value was 12% and the Z score was -1.33. For COc1ccccc1C(=O)N(Cc1cccs1)c1ccc(C)c(Cl)c1, the “% Inhibition” value was 36% and the Z score was -4.8. For O=C(Nc1ccccc1Br)N1CCN(c2nc3cc(F)ccc3n3cccc23)CC1, the “% Inhibition” value was 0% and the Z score was -0.01.
